# Some of the results follow.
# Columns and labels:
# Assay in all cases: glycan array binding signal (z-score within array); higher = stronger binding
# Details in all cases: glycan notation: IUPAC condensed, linker removed
# Gal3S6S(b1-4)GlcNAc = target: Gal3S6S(b1-4)GlcNAc
# Procedure, shortened: (§1)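 From the Consortium for Functional Glycomics database, 3228 arrays were curated, keeping only those whose protein sequence was available. Binding is given as a within-array Z-score averaged across arrays sharing a protein sequence and across linkers. Negative Z-scores can be read as non-binding.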
# Gal3S6S(b1-4)GlcNAc6S = target: Gal3S6S(b1-4)GlcNAc6S
# Procedure, shortened: as §1
# Gal4S(b1-4)GlcNAc = target: Gal4S(b1-4)GlcNAc
# Procedure, shortened: as §1
# Gal4S6S(b1-4)GlcNAc = target: Gal4S6S(b1-4)GlcNAc
# Procedure, shortened: as §1
# Gal6P(b1-4)GlcNAc = target: Gal6P(b1-4)GlcNAc
# Procedure, shortened: as §1
# Gal6S(b1-3)GlcNAc = target: Gal6S(b1-3)GlcNAc
# Procedure, shortened: as §1
# Gal6S(b1-3)GlcNAc6S = target: Gal6S(b1-3)GlcNAc6S
# Procedure, shortened: as §1
# Gal6S(b1-4)Glc = target: Gal6S(b1-4)Glc
# Procedure, shortened: as §1
# Gal6S(b1-4)Glc6S = target: Gal6S(b1-4)Glc6S
# Procedure, shortened: as §1
# Gal6S(b1-4)GlcNAc = target: Gal6S(b1-4)GlcNAc
# Procedure, shortened: as §1
# Gal6S(b1-4)GlcNAc6S = target: Gal6S(b1-4)GlcNAc6S
# Procedure, shortened: as §1
# GalNAc(a1-3)Gal = target: GalNAc(a1-3)Gal
# Procedure, shortened: as §1
# GalNAc(a1-3)GalNAc = target: GalNAc(a1-3)GalNAc
# Procedure, shortened: as §1
# [1] = target: GalNAc(a1-3)GalNAc(b1-3)Gal(a1-4)Gal(b1-4)Glc
# Procedure, shortened: as §1
# [2] = target: GalNAc(a1-3)GalNAc(b1-3)Gal(a1-4)Gal(b1-4)GlcNAc
# Procedure, shortened: as §1
# GalNAc(b1-3)Gal = target: GalNAc(b1-3)Gal
# Procedure, shortened: as §1
# [3] = target: GalNAc(b1-3)Gal(a1-4)Gal(b1-4)GlcNAc
# Procedure, shortened: as §1
# [4] = target: GalNAc(b1-3)Gal(a1-4)Gal(b1-4)GlcNAc(b1-3)Gal(b1-4)Glc
# Procedure, shortened: as §1
# [5] = target: GalNAc(b1-3)Gal(a1-6)Gal(b1-4)Glc
# Procedure, shortened: as §1
# GalNAc(b1-3)GalNAc = target: GalNAc(b1-3)GalNAc
# Procedure, shortened: as §1
# GalNAc(b1-3)GlcNAc = target: GalNAc(b1-3)GlcNAc
# Procedure, shortened: as §1
# GalNAc(b1-4)Gal(b1-4)Glc = target: GalNAc(b1-4)Gal(b1-4)Glc
# Procedure, shortened: as §1
# GalNAc(b1-4)GlcNAc = target: GalNAc(b1-4)GlcNAc
# Procedure, shortened: as §1
# [6] = target: GalNAc(b1-4)GlcNAc(b1-2)Man
# Procedure, shortened: as §1
# [7] = target: GalNAc(b1-4)GlcNAc(b1-2)Man(a1-3)[GalNAc(b1-4)GlcNAc(b1-2)Man(a1-6)]Man(b1-4)GlcNAc(b1-4)GlcNAc
# Procedure, shortened: as §1
# [8] = target: GalNAc(b1-4)GlcNAc(b1-3)GalNAc(b1-4)GlcNAc
# Procedure, shortened: as §1
# GalNAc(b1-4)GlcNAc6S = target: GalNAc(b1-4)GlcNAc6S
# Procedure, shortened: as §1
# GalNAc(b1-6)GalNAc = target: GalNAc(b1-6)GalNAc
# Procedure, shortened: as §1
# GalNAc3S(b1-4)GlcNAc = target: GalNAc3S(b1-4)GlcNAc
# Procedure, shortened: as §1
# GalNAc3S(b1-4)GlcNAc3S = target: GalNAc3S(b1-4)GlcNAc3S
# Procedure, shortened: as §1
# [9] = target: GalNAc3S(b1-4)[Fuc(a1-3)]GlcNAc
# Procedure, shortened: as §1
# GalNAc4S6S(b1-4)GlcNAc = target: GalNAc4S6S(b1-4)GlcNAc
# Procedure, shortened: as §1
# GalNAc6S(b1-4)GlcNAc = target: GalNAc6S(b1-4)GlcNAc
# Procedure, shortened: as §1
# Glc(a1-4)Glc = target: Glc(a1-4)Glc
# Procedure, shortened: as §1
# [10] = target: Glc(a1-4)Glc(a1-4)Glc(a1-4)Glc
# Procedure, shortened: as §1
# Glc(a1-6)Glc(a1-6)Glc = target: Glc(a1-6)Glc(a1-6)Glc
# Procedure, shortened: as §1
# [11] = target: Glc(a1-6)Glc(a1-6)Glc(a1-6)Glc
# Procedure, shortened: as §1
# Glc(b1-4)Glc = target: Glc(b1-4)Glc
# Procedure, shortened: as §1
binder,measurement,setting,value
LecRKVI.2 (protein) RTTTNFAFRGFNGNQSKIRIEGAAMIKPDGLLRLTDRKSNVTGTAFYHKPVRLLNRNSTNVTIRSFSTSFVFVIIPSSSSNKGFGFTFTLSPTPYRLNAGSAQYLGVFNKENNGDPRNHVFAVEFDTVQGSRDDNTDRIGNDIGLNYNSRTSDLQEPVVYYNNDDHNKKEDFQLESGNPIQALLEYDGATQMLNVTVYPARLGFKPTKPLISQHVPKLLEIVQEEMYVGFTASTGKGQSSAHYVMGWSFSSGGERPIADVLILSELPPPPPNKAKKEGLNS,glycan array binding signal (z-score),Gal3S6S(b1-4)GlcNAc,-0.344
same,glycan array binding signal (z-score),Gal3S6S(b1-4)GlcNAc6S,-0.298
same,glycan array binding signal (z-score),Gal4S(b1-4)GlcNAc,-0.292
same,glycan array binding signal (z-score),Gal4S6S(b1-4)GlcNAc,-0.352
same,glycan array binding signal (z-score),Gal6P(b1-4)GlcNAc,0.267
same,glycan array binding signal (z-score),Gal6S(b1-3)GlcNAc,0.647
same,glycan array binding signal (z-score),Gal6S(b1-3)GlcNAc6S,-0.041
same,glycan array binding signal (z-score),Gal6S(b1-4)Glc,-0.163
same,glycan array binding signal (z-score),Gal6S(b1-4)Glc6S,-0.354
same,glycan array binding signal (z-score),Gal6S(b1-4)GlcNAc,-0.265
same,glycan array binding signal (z-score),Gal6S(b1-4)GlcNAc6S,-0.138
same,glycan array binding signal (z-score),GalNAc(a1-3)Gal,3.89
same,glycan array binding signal (z-score),GalNAc(a1-3)GalNAc,-0.315
same,glycan array binding signal (z-score),[1],-0.362
same,glycan array binding signal (z-score),[2],-0.332
same,glycan array binding signal (z-score),GalNAc(b1-3)Gal,0.446
same,glycan array binding signal (z-score),[3],-0.271
same,glycan array binding signal (z-score),[4],-0.106
same,glycan array binding signal (z-score),[5],-0.316
same,glycan array binding signal (z-score),GalNAc(b1-3)GalNAc,-0.415
same,glycan array binding signal (z-score),GalNAc(b1-3)GlcNAc,0.105
same,glycan array binding signal (z-score),GalNAc(b1-4)Gal(b1-4)Glc,-0.332
same,glycan array binding signal (z-score),GalNAc(b1-4)GlcNAc,0.038
same,glycan array binding signal (z-score),[6],0.196
same,glycan array binding signal (z-score),[7],0.707
same,glycan array binding signal (z-score),[8],-0.258
same,glycan array binding signal (z-score),GalNAc(b1-4)GlcNAc6S,-0.305
same,glycan array binding signal (z-score),GalNAc(b1-6)GalNAc,-0.445
same,glycan array binding signal (z-score),GalNAc3S(b1-4)GlcNAc,-0.314
same,glycan array binding signal (z-score),GalNAc3S(b1-4)GlcNAc3S,-0.321
same,glycan array binding signal (z-score),[9],-0.345
same,glycan array binding signal (z-score),GalNAc4S6S(b1-4)GlcNAc,-0.338
same,glycan array binding signal (z-score),GalNAc6S(b1-4)GlcNAc,0.133
same,glycan array binding signal (z-score),Glc(a1-4)Glc,-0.353
same,glycan array binding signal (z-score),[10],-0.441
same,glycan array binding signal (z-score),Glc(a1-6)Glc(a1-6)Glc,-0.423
same,glycan array binding signal (z-score),[11],-0.344
same,glycan array binding signal (z-score),Glc(b1-4)Glc,-0.292

# Reference: the supplement of paper PMC8728848
